Results reported in ChEMBL document CHEMBL1140645, “Synthesis and in vitro activity of 2-thiazolylhydrazone derivatives compared with the activity of clotrimazole against clinical isolates of Candida spp” (Bioorg Med Chem Lett, 2007).
Converted amounts (≈) assume the structure as drawn.

Experiments:
Pichia kudriavzevii = assay: Antifungal activity against Candida krusei after 24 hrs by broth microdilution method; format: functional
Candida parapsilosis = assay: Antifungal activity against Candida parapsilosis after 24 hrs by broth microdilution method; format: functional; conditions: Lodderomyces parapsilosis
[Candida] sake = Antifungal activity against Candida sake after 24 hrs by broth microdilution method; format: functional; conditions: Fermentozyma sake
[1] = Cytotoxicity against human EAhy926 cells assessed as cell survival fraction at 50 ug/ml after 24 hrs by trypan blue exclusion test; conditions: ea.hy 926, at 50 µg/mL
[2] = Cytotoxicity against human EAhy926 cells assessed as cell survival fraction at 5 ug/ml after 24 hrs by trypan blue exclusion test; conditions: ea.hy 926, at 5 µg/mL
[3] = Cytotoxicity against human EAhy926 cells assessed as cell survival fraction at 0.5 ug/ml after 24 hrs by trypan blue exclusion test; conditions: ea.hy 926, at 0.5 µg/mL
[4] = Cytotoxicity against human EAhy926 cells assessed as cell survival fraction at 0.05 ug/ml after 24 hrs by trypan blue exclusion test; conditions: ea.hy 926, at 0.05 µg/mL
Candida albicans = assay: Antifungal activity against Candida albicans after 24 hrs by broth microdilution method; format: functional
Nakaseomyces glabratus = assay: Antifungal activity against Candida glabrata after 24 hrs by broth microdilution method; format: functional
Candida tropicalis = assay: Antifungal activity against Candida tropicalis after 24 hrs by broth microdilution method; format: functional

Cc1ccc(-c2csc(N/N=C3\CCCCC3C)n2)cc1 (stereo unspecified)
MIC (Pichia kudriavzevii): 64 mg/L (≈ 214 µM) | MIC (Candida parapsilosis): 8 mg/L (≈ 26.7 µM) | MIC ([Candida] sake): 32 mg/L (≈ 107 µM) | viability at 24 h, 50 ug/ml [1]: 64% | viability at 24 h, 5 ug/ml [2]: 63.6% | viability at 24 h, 0.5 ug/ml [3]: 78.5% | viability at 24 h, 0.05 ug/ml [4]: 85.7% | MIC (Candida albicans): 0.25 mg/L (≈ 0.835 µM) | MIC (Nakaseomyces glabratus): 0.5 mg/L (≈ 1.67 µM) | MIC (Candida tropicalis): 2 mg/L (≈ 6.68 µM)

CC1CCC(=NNc2nc(-c3ccc(Cl)cc3)cs2)CC1 (stereo unspecified)
MIC (Pichia kudriavzevii): 0.5 mg/L (≈ 1.56 µM) | MIC (Candida parapsilosis): 8 mg/L (≈ 25 µM) | MIC ([Candida] sake): 2 mg/L (≈ 6.25 µM) | MIC (Candida albicans): 0.5 mg/L (≈ 1.56 µM) | MIC (Nakaseomyces glabratus): 32 mg/L (≈ 100 µM) | MIC (Candida tropicalis): 2 mg/L (≈ 6.25 µM)

COc1ccc(-c2csc(N/N=C3\CCCCC3C)n2)cc1 (stereo unspecified)
MIC (Pichia kudriavzevii): 16 mg/L (≈ 50.7 µM) | MIC (Candida parapsilosis): 8 mg/L (≈ 25.4 µM) | MIC ([Candida] sake): 32 mg/L (≈ 101 µM) | viability at 24 h, 50 ug/ml [1]: 75% | viability at 24 h, 5 ug/ml [2]: 83.3% | viability at 24 h, 0.5 ug/ml [3]: 84% | viability at 24 h, 0.05 ug/ml [4]: 86% | MIC (Candida albicans): 0.5 mg/L (≈ 1.59 µM) | MIC (Nakaseomyces glabratus): 0.25 mg/L (≈ 0.793 µM) | MIC (Candida tropicalis): 8 mg/L (≈ 25.4 µM)
